Test results: patent US20240325539A1, “METHODS AND COMPOSITIONS FOR TREATING EPSTEIN BARR VIRUS-ASSOCIATED CANCER” (The Chancellor, Masters and Scholars of the University of …, priority 2020, published 2024)

Tested on: PBMCs from an EBV+ healthy donor
Assay: IFNγ ELISpot of ex vivo EBV-specific CD8+ T cell responses
Type: cell-based, human
Settings: PBMCs with pool of EBV epitopes, 12 hours; range of doses
Description: To be able to effectively “kick” EBV+GC cells into Zta+ abortive EBV reactivation lytic cycle presented us with an opportunity to “kill” the reactivated EBV+ cancer cells by harnessing the host's immune system, Zta specific T cells in particular as Zta is highly immunogenic (Pudney, V. A., et al. (2005). J Exp Med 201, 349-360) and many EBV seropositive individuals have Zta memory T cells. This study was set out to test whether HDACi have any direct impacts on CD8+ T cell responses to EBV viral antigens. Peripheral blood mononuclear cells (PBMCs) from an EBV+ healthy donor were stimulated with a pool of pre-determined EBV epitopes in the presence or absence of HDACi for 12 hours, and ex vivo EBV-specific CD8+ T cell responses were determined by an IFNγ ELISpot assay. […] In parallel, the optimal dose of each HDACi for AGS-EBV to minimize cell toxicity versus their ability to induce Zta expression was determined (FIG. 15A). To provide a proof of principle, whether reactivation of Zta by HDACi could sensitize tumor cells for recognition and killing by Zta-specific CD8+ T cells was subsequently tested. […] The TCR gene was retrovirally transduced into a TCR-negative T cell line (SKW3) or primary human CD8+ T cells for functional readouts, including cytokine production and killing of the tumor cells.

Compound	effect on T cell responses to EBV antigens
Nc1cc(F)ccc1NC(=O)c1ccc(CNC(=O)/C=C/c2cccnc2)cc1 [chidamide]	little, if any, inhibitory effect
Cc1[nH]c2ccccc2c1CCNCc1ccc(/C=C/C(=O)NO)cc1 [panobinostat]	substantially greater inhibition of the T cell responses than SAHA
